# Test results published in paper PMC5540273 (PLoS ONE, 2017).
# Shown are results outside the selection of strong results, which stands elsewhere.
# System: MUSK
# Details: concentration: 1 μM,replicates: in singlicate; n = 1
# 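Further: KINOMEscan kinase panel screen.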
row,Structure (SMILES),%Inh [%]
1,O=C1NC(=O)C(c2ccccc2Cl)=C1Nc1ccccc1 [SB-376715],0
2,CSc1ccc(NC2=C(c3cccc(Cl)c3)C(=O)NC2=O)cc1 [SB-341528],0
3,O=C1NC(=O)C(c2ccc(Cl)cc2)=C1Nc1ccccc1 [SB-317661],0
4,COc1ccc(C2=C(Nc3cccc(Cl)c3)C(=O)NC2=O)cc1 [SB-326892],0
5,O=C1NC(=O)C(c2ccccc2Cl)=C1Nc1cccc(C(=O)O)c1 [SB-390526],5
6,COc1cccc(C2=C(Nc3ccc(SC)cc3)C(=O)NC2=O)c1 [SB-331032],0
7,O=C(O)c1ccc(-c2nc(-c3ccc(F)cc3)c(-c3ccncc3)[nH]2)cc1 [SB-202620],0
8,O=C1NC(=O)C(c2ccccc2)=C1Nc1ccc(Cl)c(C(=O)O)c1 [SB-390532],0
9,O=C1NC(=O)C(c2ccc(Cl)cc2)=C1Nc1cccc(O)c1 [SB-333613],10
10,CS(=O)(=O)c1ccccc1-c1nc(-c2ccc(F)cc2)c(-c2ccncc2)[nH]1 [SB-213663],0
11,Cc1cc(C)cc(Oc2nccc(-c3c(-c4ccc(F)cc4)ncn3C3CCNCC3)n2)c1.O=C(O)C(F)(F)F.O=C(O)C(F)(F)F.O=C(O)C(F)(F)F [SB-284851],0
12,O=C1NC(=O)C(c2ccc(Cl)cc2)=C1Nc1cccc(C(=O)O)c1 [SB-360737],6
13,O=C1NC(=O)C(c2ccc(Cl)cc2)=C1Nc1ccc(O)c(Cl)c1 [SB-405367],0
14,O=C1NC(=O)C(c2ccccc2)=C1Nc1cc(Cl)c(O)c(Cl)c1 [SB-390530],34
15,Cc1ccc(C)c(Oc2nccc(-c3c(-c4ccc(F)cc4)ncn3C3CCNCC3)n2)c1.O=C(O)C(F)(F)F.O=C(O)C(F)(F)F.O=C(O)C(F)(F)F [SB-284852],0
16,O=C1NC(=O)c2c1c(-c1ccccc1)cc1[nH]c3ccc(O)cc3c21,8

# System: MYLK2
# Details: concentration: 1 μM,replicates: in singlicate; n = 1
row,Structure (SMILES),%Inh [%]
1,O=C1NC(=O)C(c2ccccc2Cl)=C1Nc1ccccc1 [SB-376715],10
2,CSc1ccc(NC2=C(c3cccc(Cl)c3)C(=O)NC2=O)cc1 [SB-341528],0
3,O=C1NC(=O)C(c2ccc(Cl)cc2)=C1Nc1ccccc1 [SB-317661],0
4,COc1ccc(C2=C(Nc3cccc(Cl)c3)C(=O)NC2=O)cc1 [SB-326892],0
5,O=C1NC(=O)C(c2ccccc2Cl)=C1Nc1cccc(C(=O)O)c1 [SB-390526],0
6,COc1cccc(C2=C(Nc3ccc(SC)cc3)C(=O)NC2=O)c1 [SB-331032],16
7,O=C(O)c1ccc(-c2nc(-c3ccc(F)cc3)c(-c3ccncc3)[nH]2)cc1 [SB-202620],3
8,O=C1NC(=O)C(c2ccccc2)=C1Nc1ccc(Cl)c(C(=O)O)c1 [SB-390532],0
9,O=C1NC(=O)C(c2ccc(Cl)cc2)=C1Nc1cccc(O)c1 [SB-333613],8
10,CS(=O)(=O)c1ccccc1-c1nc(-c2ccc(F)cc2)c(-c2ccncc2)[nH]1 [SB-213663],0
11,Cc1cc(C)cc(Oc2nccc(-c3c(-c4ccc(F)cc4)ncn3C3CCNCC3)n2)c1.O=C(O)C(F)(F)F.O=C(O)C(F)(F)F.O=C(O)C(F)(F)F [SB-284851],0
12,O=C1NC(=O)C(c2ccc(Cl)cc2)=C1Nc1cccc(C(=O)O)c1 [SB-360737],18
13,O=C1NC(=O)C(c2ccc(Cl)cc2)=C1Nc1ccc(O)c(Cl)c1 [SB-405367],0
14,O=C1NC(=O)C(c2ccccc2)=C1Nc1cc(Cl)c(O)c(Cl)c1 [SB-390530],7
15,Cc1ccc(C)c(Oc2nccc(-c3c(-c4ccc(F)cc4)ncn3C3CCNCC3)n2)c1.O=C(O)C(F)(F)F.O=C(O)C(F)(F)F.O=C(O)C(F)(F)F [SB-284852],0
16,O=C1NC(=O)c2c1c(-c1ccccc1)cc1[nH]c3ccc(O)cc3c21,97

# System: MYLK4
# Details: concentration: 1 μM,replicates: in singlicate; n = 1
row,Structure (SMILES),%Inh [%]
1,O=C1NC(=O)C(c2ccccc2Cl)=C1Nc1ccccc1 [SB-376715],8
2,CSc1ccc(NC2=C(c3cccc(Cl)c3)C(=O)NC2=O)cc1 [SB-341528],6
3,O=C1NC(=O)C(c2ccc(Cl)cc2)=C1Nc1ccccc1 [SB-317661],6
4,COc1ccc(C2=C(Nc3cccc(Cl)c3)C(=O)NC2=O)cc1 [SB-326892],22
5,O=C1NC(=O)C(c2ccccc2Cl)=C1Nc1cccc(C(=O)O)c1 [SB-390526],6
6,COc1cccc(C2=C(Nc3ccc(SC)cc3)C(=O)NC2=O)c1 [SB-331032],16
7,O=C(O)c1ccc(-c2nc(-c3ccc(F)cc3)c(-c3ccncc3)[nH]2)cc1 [SB-202620],15
8,O=C1NC(=O)C(c2ccccc2)=C1Nc1ccc(Cl)c(C(=O)O)c1 [SB-390532],4
9,O=C1NC(=O)C(c2ccc(Cl)cc2)=C1Nc1cccc(O)c1 [SB-333613],0
10,CS(=O)(=O)c1ccccc1-c1nc(-c2ccc(F)cc2)c(-c2ccncc2)[nH]1 [SB-213663],0
11,Cc1cc(C)cc(Oc2nccc(-c3c(-c4ccc(F)cc4)ncn3C3CCNCC3)n2)c1.O=C(O)C(F)(F)F.O=C(O)C(F)(F)F.O=C(O)C(F)(F)F [SB-284851],0
12,O=C1NC(=O)C(c2ccc(Cl)cc2)=C1Nc1cccc(C(=O)O)c1 [SB-360737],0
13,O=C1NC(=O)C(c2ccc(Cl)cc2)=C1Nc1ccc(O)c(Cl)c1 [SB-405367],10
14,O=C1NC(=O)C(c2ccccc2)=C1Nc1cc(Cl)c(O)c(Cl)c1 [SB-390530],11
15,Cc1ccc(C)c(Oc2nccc(-c3c(-c4ccc(F)cc4)ncn3C3CCNCC3)n2)c1.O=C(O)C(F)(F)F.O=C(O)C(F)(F)F.O=C(O)C(F)(F)F [SB-284852],0
16,O=C1NC(=O)c2c1c(-c1ccccc1)cc1[nH]c3ccc(O)cc3c21,99.8
